Over roughly 110,000 compounds, “z-score” has its median near -0.1; the highest 2% begin near 2. The list shows a part of the results. Activity calls are given as the source filed them.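 How the source made its calls: active means z-score in the third read window above 3 or below -3; inactive means the rest.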

For the experiment, the target named is Metabotropic glutamate receptor 8 (Rattus norvegicus) (UniProt P70579). In words: rat mGluR8 modulators via GIRK flux, primary screen, cell-based, thallium flux, HTS (AID 488969). Particulars: HEK293 rat mGluR8, GIRK (G protein-gated inwardly rectifying potassium channel) thallium flux, FluoZin2; at 10 µM; stronger effect = higher value; submaximal glutamate (EC20) added with thallium.
Chain of UniProt P70579 (P70579 whole entry, looked up): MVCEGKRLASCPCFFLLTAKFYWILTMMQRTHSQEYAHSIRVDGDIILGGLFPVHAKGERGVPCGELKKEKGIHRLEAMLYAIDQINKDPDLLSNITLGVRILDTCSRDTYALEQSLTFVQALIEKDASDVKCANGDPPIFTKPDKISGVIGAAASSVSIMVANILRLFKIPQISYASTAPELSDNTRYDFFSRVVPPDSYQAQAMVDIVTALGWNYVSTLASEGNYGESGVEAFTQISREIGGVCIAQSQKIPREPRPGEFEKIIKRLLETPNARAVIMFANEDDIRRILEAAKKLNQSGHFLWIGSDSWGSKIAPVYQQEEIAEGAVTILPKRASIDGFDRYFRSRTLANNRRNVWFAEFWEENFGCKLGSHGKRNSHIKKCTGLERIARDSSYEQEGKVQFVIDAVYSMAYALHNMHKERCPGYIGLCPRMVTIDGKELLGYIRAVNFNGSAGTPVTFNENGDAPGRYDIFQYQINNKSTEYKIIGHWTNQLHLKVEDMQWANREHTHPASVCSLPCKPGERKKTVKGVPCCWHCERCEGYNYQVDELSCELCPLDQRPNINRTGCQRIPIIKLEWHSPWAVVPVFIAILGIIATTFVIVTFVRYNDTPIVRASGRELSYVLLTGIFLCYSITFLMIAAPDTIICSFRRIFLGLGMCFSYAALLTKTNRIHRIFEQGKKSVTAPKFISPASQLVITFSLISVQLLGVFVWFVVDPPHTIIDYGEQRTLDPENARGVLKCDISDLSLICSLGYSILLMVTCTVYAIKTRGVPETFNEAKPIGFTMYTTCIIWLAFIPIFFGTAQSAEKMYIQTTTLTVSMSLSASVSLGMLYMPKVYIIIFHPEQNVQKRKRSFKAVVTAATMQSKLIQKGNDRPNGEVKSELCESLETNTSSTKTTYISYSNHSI
In turn, `N=c1sccn1CC(=O)Nc1cccc(Oc2ccccc2)c1` returned a z-score of -0.953.
Under `COc1ccc(Cl)cc1NC(=O)c1oc(C)nc1C` stands 0.237; under `COc1cccc(/C=N/n2cnnc2)c1OCc1ccccc1`, -0.0136; under `CC1=NN(/C(=N\c2nnc(C)s2)Nc2ccccc2)[C@H](c2cccc3ccccc23)S1`, -1.78.
Under `CC(=O)c1ccc(NS(=O)(=O)c2ccc(C)cc2)cc1` stands -0.262; under `Cc1ccccc1OCC(O)Cn1c(NCCN(C)C)nc2c1c(=O)n(C)c(=O)n2C` (configuration not stated), -0.102.
Next, `CCC(C)NS(=O)(=O)c1ccc(NS(=O)(=O)c2ccc(F)cc2)cc1` (configuration not stated): -0.209.
Turning to `CS(=O)(=O)N(CC(=O)Nc1ccccc1Sc1ccccc1)c1ccc(F)cc1`, the z-score was 0.0742.
Next, `COc1ccc(/C=C2\SC(=S)N(CCCC(=O)Nc3ccccn3)C2=O)cc1OC`: -0.307; `Fc1ccc(-c2nnc(CN3CCN(c4ncc(C(F)(F)F)cc4Cl)CC3)o2)cc1`: -0.423; `CCCOc1ccc(/C=N/O)cc1`: 0.0193.
`CC(=O)c1ccc(NC(=O)c2ccc(S(=O)(=O)N3CCCC3)cc2)cc1` gave a z-score of 0.269.
Next, `CCCC(=O)Nc1ccccc1NC(=O)c1cc(OC)c(OC)c(OC)c1`: -0.11.
Next, `COc1cc(OC)c(NC(=O)c2ccoc2C)cc1Cl`: -0.687; `CC(C)c1nnc(SCC(=O)NCc2ccc3c(c2)OCO3)n1C`: -0.49.
In the case of `C[C@H](NC(=O)c1ccco1)C(=O)Nc1ccc(S(=O)(=O)N2CCCC2)cc1`, the z-score is -0.00895.
For `CCC(=O)N1c2ccc(S(=O)(=O)CCC(=O)NC3CCCC3)cc2CC1C` (configuration not stated), the z-score was -0.055.
Under `CNC(=O)c1ccc(CNC(=O)OCC(F)(F)F)cc1` stands 0.123; under `CC(=O)N1CCN(C(=S)NCCc2ccccc2)CC1`, -0.0723.
Under `Cc1cccc(N2CCN(CC(=O)Nc3ccc(-n4cnnn4)cc3)CC2)c1C` stands 0.12.
Next, `O=c1c2cc3c(cc2[nH]c(=S)n1Cc1ccco1)OCO3`: 2.77.
`Cc1ccc(C(CCN(Cc2ccccc2)C(=O)c2ccco2)c2ccco2)cc1` (configuration not stated): the z-score is -0.0064.
Under `N#CC1=C(N)OC2=C(CCc3ccccc32)C1c1ccccc1` (configuration not stated) stands -0.351; under `CN(C)N=Nc1ccc(S(=O)(=O)N2CCSC2C(=O)O)cc1` (configuration not stated), 1.62.
Under `CCCCOc1ccc(-c2cnc3ccccc3n2)cc1` stands -0.107.
Next, `O=C(COC(=O)c1c(Cl)ccc(Cl)c1Cl)NC(=O)NCc1ccccc1`: -0.813.
Regarding `COc1ccc(S(=O)(=O)N2CN(CCc3ccc(OC)c(OC)c3)c3nc4ccccc4nc32)cc1`, the z-score was -0.186.
`O=C(Nc1ccc2nc(-c3cccs3)c(-c3cccs3)nc2c1)N1CCOCC1` came in with a z-score of -0.942.
Next, `CC1(C)CC2(CC(C)(C)NC(=O)N2)NC(=O)N1`: -1.37; `O=C(Oc1cccc2c(OC(=O)N3CCCC3)cccc12)N1CCCC1`: -0.117.
The molecule `N#Cc1nc(COc2ccc(Cl)cc2Cl)oc1N1CCN(c2ccccc2)CC1` registered a z-score of -1.08.
`COc1ccc([N+](=O)[O-])cc1NC(=O)Cc1ccccc1Cl`: the z-score is -0.0573.
In turn, `CCCCNC(=O)/C=C/c1ccc(OC)c(Br)c1` gave a z-score of 0.109.
Under `C=CCN(CC=C)C(=O)Cn1cnc([N+](=O)[O-])n1` stands 0.102.
Next, `CCCCn1c(CN2CCN(c3cccc(Cl)c3)CC2)nc2c1c(=O)n(C)c(=O)n2C`: -0.183; `Cc1cccc(S(=O)(=O)Nc2nc3ccccc3nc2NCc2ccco2)c1`: 0.8; `CCCc1cc(=O)[nH]c(SCC(=O)Nc2c(C)cccc2C)n1`: 0.613.
Under `CC1CCCN(C(=O)Cc2ccc(F)cc2)C1` (configuration not stated) stands 0.0202; under `COc1ccccc1Cc1nc(-c2ccc(Br)o2)no1`, -0.39; under `O=C1C=C(NCc2ccc(Cl)c(Cl)c2)C2(CCCCC2)O1`, -0.16.
`CCCCc1ccc(NC(=O)COc2ccc(C(=O)Nc3ccccc3C)cc2)cc1` showed a z-score of 0.039.
`CC(=O)c1ccc(OCC(O)Cn2nnc3ccccc32)cc1` (configuration not stated) showed a z-score of -0.632.
Under `CCN1C(=O)/C(=C/N(C)C)c2ccccc21` stands 1.1; under `O=C(Nc1ccc(N2CCOCC2)cc1)c1ccc(Cl)nc1`, -0.278.
Next, `CSc1ncccc1C(=O)OCC(=O)c1cc2ccccc2o1`: -0.011; `Cc1nc2ccccc2n1-c1ccccc1`: -0.264; `COc1ccc(Cc2nnc3n2N=C(c2cc4ccccc4o2)CS3)cc1OC`: -1.18.
Under `CCC(C)C(NC(=O)c1ccccc1NC(=O)c1ccc(OC)cc1)C(=O)NCc1ccco1` (configuration not stated) stands 0.162; under `CCOc1ccc(NC(=O)c2ccco2)cc1`, -0.0362; under `CCOC(=O)c1cc(NC(=O)c2cc(C)on2)cc(C(=O)OCC)c1`, -0.369.
`COC(=O)c1ccc(C(=O)OC)c(NC(=O)CN2CCN(c3ccc(OC)cc3)CC2)c1` displayed a z-score of 0.304.
Under `O=C(COc1ccc2ccccc2c1Br)N1CCOCC1` stands 0.168; under `CCn1c(SCC(=O)Nc2oc(-c3ccccc3)c(-c3ccccc3)c2C#N)nnc1-c1cc(OC)cc(OC)c1`, -2.12.
In turn, `CCC1C(=O)N(c2nc(C)cc(C)n2)N=C1C` (configuration not stated) gave a z-score of -0.251.
Next, `Nn1c(SCC(=O)Nc2ccc3c(c2)OCCO3)nnc1C(F)(F)F`: 0.599; `COCCN(CCOC)c1cc(C)c(C#N)c2nc3ccccc3n12`: -0.734.
In turn, `O=C(COC(=O)CNS(=O)(=O)c1ccc2ccccc2c1)Nc1ccc2c(c1)OCO2` registered a z-score of -0.165.
In turn, `CC1(C)Cc2c(C#N)c(N3CCN(C(=O)c4ccccc4)CC3)nc(Cc3ccccc3)c2CO1` yielded a z-score of -0.48.
`Cc1cccc(OC(=O)NCCOC(=O)N(O)c2ccc(Cl)cc2)c1` gave a z-score of -0.609.
Under `COc1ccc(C)cc1C(=O)CCC(=O)Nc1ccccc1N1CCOCC1` stands -0.0933.
Next, `CC(=O)Nc1cc2nn(-c3ccccc3)nc2cc1Cl`: -0.508.
Next, `CC(C)CN(C(=O)COC(=O)Cc1n[nH]c(=O)c2ccccc12)C1CCS(=O)(=O)C1` (configuration not stated): 1.83; `CCC(Sc1nc(C)cc(=O)[nH]1)C(=O)Nc1nc(-c2ccccc2)cs1` (configuration not stated): -1.23; `O=C1Nc2ccccc2N(O)N1c1ccc(S(=O)(=O)N2CCCCCC2)cc1`: -0.245.
Regarding `CCOC(=O)C1CCCN(Cc2cccs2)C1` (configuration not stated), the z-score is -0.137.
Under `COc1ccc(C2(C(=O)NCCCN(C)C)CCOCC2)cc1` stands 0.344; under `CNc1ncc(C(=O)c2ccc(Cl)cc2)s1`, -0.11; under `O=C(Nc1nnc(COc2ccc(Cl)cc2)s1)c1ccc([N+](=O)[O-])cc1`, 0.0224.
Under `Cc1cc(O)c(C(C)C)cc1NS(=O)(=O)c1ccccc1` stands -0.88; under `COc1ccccc1C1C(C(N)=O)=C(C)Nc2nc(-c3ccc(Cl)cc3)nn21` (configuration not stated), -0.394.
Next, `Cn1c(C(=O)NCCN2CCCCCC2)cc2c(=O)n(C)c3ccccc3c21`: 1.86; `CCOc1ccc(/C=N/NC(=O)c2c(C)n(C)c3ccc(OC)cc23)cc1`: -0.363.
Take `CCc1nnc(NC(=O)C2CCN(c3nc(C)cc(C)n3)CC2)s1`: the z-score worked out at 1.57.
Next, `CC1(C)Cc2ccccc2C(NNC(=O)c2cccnc2)=N1`: 1.43; `O=C(CSc1ccc(-c2ccco2)nn1)NCc1ccccc1`: 0.939; `CCOC(=O)C(=CNCC(=O)O)C(=O)OCC`: -0.23.
Under `O=C(Nc1cnc2ccccc2c1)N1CCOCC1` stands 0.247; under `Cc1nc2ccc(NC(=O)c3ccc(Cl)c([N+](=O)[O-])c3)cc2s1`, -0.169; under `COC(=O)c1ccc(NC(=O)CN2CCN(S(=O)(=O)c3cc(Cl)ccc3OC)CC2)cc1`, -0.489.
Next, `COc1cc(OC)c(OC)cc1/C=N/n1c(C)nnc1C`: 1.66; `Cc1ccccc1C(=O)NNC(=O)C(C)N1C(=O)c2ccccc2C1=O` (configuration not stated): -0.215.
In turn, `COc1ccc(/C=N/n2cc(-c3ccc(OC)cc3)nc2N)cc1` gave a z-score of 0.174.
Next, `COc1ccc(NC(=O)CN2C(=O)C(C)SC(C)C2=O)cc1` (configuration not stated): -0.0615.
`O=C(CSc1ccccc1Cl)N1CCC(c2nc3ccccc3s2)CC1`: the z-score is -0.136.
Under `O=C(C#Cc1ccccc1)c1cccc([N+](=O)[O-])c1` stands -0.189; under `Cc1ccc(CSc2nnc3nc(C)cc(C)n23)cc1`, 0.0482; under `CCOC(=O)c1c(NC(=O)c2ccc(C)cc2)sc2c1CC(C)(C)OC2`, -0.222.
Under `COC(=O)C1=C(C)N(C)C(=O)/C1=C\c1cccs1` stands 0.0366.
Next, `Cc1ccc(Oc2nnc(-c3cccs3)c3ccccc23)cc1C`: -0.107; `CCn1ncc(Br)c1C(=O)Nc1ccn(C23CC4CC(CC(C4)C2)C3)n1`: -0.117; `O=C(c1cc2c(cc1Br)OCCCO2)N1CCCCC1`: 0.00904.
The molecule `CC1(C)CC(=O)CC(=Nc2ccc(C(=O)O)cc2)C1` yielded a z-score of 2.15.
Under `Cc1sc2nc(CSc3nnc(Cc4cccs4)n3C3CCCCC3)[nH]c(=O)c2c1C` stands -0.363.
Under `O=C(NCc1ccccn1)c1ccc(Br)s1` stands -0.124.
Under `COCCn1c(N)c(C#N)c2nc3ccccc3nc21` stands -0.354; under `CC1(C)Cc2nc(N3CCOCC3)c(C#N)cc2CO1`, -0.0959.
Molecule `COC(=O)C1=C(C)N=C2SC(C)C(=O)N2C1c1cccs1` (configuration not stated) came in with a z-score of -0.173.
Under `Cc1cc(OCc2nn[nH]n2)c2c(-c3ccccc3)cc(=O)oc2c1` stands 0.399.
Next, `O=C(CN1C(=O)/C(=C\c2ccc(F)cc2)Oc2ccccc21)NCc1ccco1`: 0.138; `O=C(CN1CCN(Cc2ccccc2)CC1)Nc1cccc(C(F)(F)F)c1`: active: 7.94; `O=C(CSc1nnc(-c2cccc(S(=O)(=O)N3CCOCC3)c2)n1C1CCCCCC1)NCc1ccccc1`: -0.107.
Under `CCn1c(COc2ccc3c(c2)OCO3)nnc1SCC(=O)c1ccc(Cl)cc1` stands -0.433.
In the case of `COc1ccc(C(=O)Nn2c(SCC(=O)N3CCC(C)CC3)nc3ccccc3c2=O)cc1`, the z-score is -0.163.
Under `Cc1ccc(C2(C)NC(=O)N(CC(=O)Nc3cc(C)on3)C2=O)cc1` (configuration not stated) stands -0.0921; under `CCCCc1cc(=O)oc2cc(C)cc(O)c12`, active: -3.56; under `O=C(N1CCN(c2ccccc2F)CC1)C12CC3CC(CC(C3)C1)C2`, -0.199.
Under `CC(C)(C(=O)c1ccccc1)/[N+]([O-])=C/c1ccc(F)cc1` stands -0.0905.
Next, `COc1cccc(Nc2nc3ccccc3n3nnnc23)c1`: 0.931.
Take `CCN(CC)C(=O)COC(=O)c1ccc(O)cc1`: the z-score is -0.62.
Next, `COc1ccc(COc2ccsc2C(=O)Nc2ccc(Cl)c(Cl)c2)cc1`: -0.187; `Cc1ccnc(SCCn2c(N3CCCCC3)nc3c2c(=O)n(C)c(=O)n3C)n1`: -0.159.
Next, `O=C(CN1CCOCCOCCOCC1)Nc1ccccc1`: 0.274.

For the origin of these results see PubChem BioAssay AID488969 (Vanderbilt High Throughput Screening Facility, 2010).
